Whole data set: some 110,000 compounds, median “z-score” near -0.1, cut for the highest 2% near 2. The list shows a part of the results.

This assay addresses Metabotropic glutamate receptor 8 (Rattus norvegicus) (UniProt P70579). The experiment in a line: rat mGluR8 modulators via GIRK flux, primary screen, cell-based, thallium flux, HTS (AID 488969). The following applies: HEK293 rat mGluR8, GIRK (G protein-gated inwardly rectifying potassium channel) thallium flux, FluoZin2; at 10 µM; stronger effect = higher value; submaximal glutamate (EC20) added with thallium.
UniProt P70579, sequence (P70579 whole entry, looked up): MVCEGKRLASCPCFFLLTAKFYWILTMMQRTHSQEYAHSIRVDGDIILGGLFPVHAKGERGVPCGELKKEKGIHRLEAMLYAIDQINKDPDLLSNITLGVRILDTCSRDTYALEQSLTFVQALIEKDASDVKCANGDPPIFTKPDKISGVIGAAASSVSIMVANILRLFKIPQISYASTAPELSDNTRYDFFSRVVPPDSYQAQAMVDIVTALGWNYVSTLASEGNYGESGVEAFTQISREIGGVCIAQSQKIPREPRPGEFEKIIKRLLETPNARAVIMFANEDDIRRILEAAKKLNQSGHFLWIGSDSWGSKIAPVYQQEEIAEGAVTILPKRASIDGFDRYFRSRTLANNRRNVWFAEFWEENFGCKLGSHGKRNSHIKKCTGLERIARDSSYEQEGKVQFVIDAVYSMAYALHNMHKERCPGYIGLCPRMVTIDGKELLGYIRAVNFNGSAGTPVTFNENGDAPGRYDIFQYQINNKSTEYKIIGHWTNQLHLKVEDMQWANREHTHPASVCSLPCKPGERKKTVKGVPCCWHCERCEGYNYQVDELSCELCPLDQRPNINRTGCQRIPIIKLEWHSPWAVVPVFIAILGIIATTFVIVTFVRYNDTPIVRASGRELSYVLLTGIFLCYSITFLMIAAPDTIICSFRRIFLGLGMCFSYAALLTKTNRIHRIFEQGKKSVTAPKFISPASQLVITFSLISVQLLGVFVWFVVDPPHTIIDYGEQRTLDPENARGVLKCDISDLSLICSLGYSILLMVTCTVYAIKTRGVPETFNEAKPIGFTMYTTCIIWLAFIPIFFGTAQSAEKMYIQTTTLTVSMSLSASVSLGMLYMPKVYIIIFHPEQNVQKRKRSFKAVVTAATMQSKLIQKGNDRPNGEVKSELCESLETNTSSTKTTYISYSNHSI
For the compound `O=C1NC(NS(=O)(=O)c2ccc(Cl)cc2)(C(F)(F)F)C(=O)N1c1ccccc1` (stereo not drawn), the z-score is -0.21.
Under `C#CC[N+](C)(C)CCCCCCCCCC` stands -0.708; under `Cc1noc(C(=O)Nc2ccccc2C(F)(F)F)c1Cl`, -0.0737.
Consider `Cc1cc(Nc2ccccc2)nc(N)n1`, for which the z-score was -0.126.
On to `CN(CC(=O)N1CC=C(c2ccccc2)CC1)S(=O)(=O)c1ccc2c(c1)c(=O)n(C)c(=O)n2C`, for which the z-score was -0.448.
The compound `N#Cc1cc([N+](=O)[O-])ccc1Oc1cccc(/C=N/NC(=O)c2ccc(Cl)cc2)c1` returned a z-score of -0.242.
The figure for `O=C(N1CCCC1)n1c(Cc2ccccc2)nc2ccccc21` is 1.03; for `C=CCNC(=O)c1ccc(-c2nc(-c3ccc(Cl)c(Cl)c3)cs2)cc1` it is -0.148.
In turn, `O=C(NC1CCN(C(=O)N2c3ccccc3Sc3ccccc32)CC1)c1ccccc1Cl` registered a z-score of -0.141.
Under `O=C(O)CN(c1ccc2c(c1)OCCO2)S(=O)(=O)c1ccccc1` stands 0.571; under `O=C1NC(=O)/C(=C\c2ccccc2OCc2cccc([N+](=O)[O-])c2)N1`, 0.121; under `O=C(c1ccccc1)c1cc([N+](=O)[O-])ccc1N1CCOCC1`, -0.227.
The figure for `O=C(c1ccccc1)c1nn(-c2ccccc2)c2nnc(Cc3ccccc3)c(=O)n12` is 0.0936; for `COc1ccc(C2CC(c3ccc(Br)cc3)Nc3nc(N)nn32)cc1` (stereo not drawn) it is 1.67.
In turn, `O=C(NCc1ccccc1)/C(NC(=O)c1ccccc1)=C(/Sc1ccccn1)c1ccccc1` came in with a z-score of -0.559.
The figure for `O=[N+]([O-])c1ccccc1/C=N/N1CCN(c2ccc(Cl)cc2)CC1` is 0.09; for `COc1ccc(C(=O)/C=C/C(=O)N(Cc2ccc(F)cc2)C(C(=O)NC2CCCCC2)c2ccncc2)c(O)c1` (stereo not drawn) it is 0.484; for `CC(C)OC(=O)CSc1nc2cc3c(cc2cc1C#N)OCO3` it is 0.206.
Under `Cc1cc(N2CCOCC2)c(F)cc1C(=O)c1ccccc1` stands -0.135.
Turning to `CC1(C)Cc2c(sc3c2C2=NCCN2C=N3)CS1`, the z-score was -0.436.
Compound `COc1ccc(NC(=O)C(NC(C)=O)C(=O)NCc2ccccc2Cl)cc1` (stereo not drawn) displayed a z-score of 0.051.
In the case of `CCOC(=O)C1=C(C)N=c2s/c(=C\C(=O)OC)c(=O)n2C1c1ccc(OC)cc1` (stereo not drawn), the z-score was -0.276.
Under `Cc1[nH]c2c(Br)cccc2c1[C@H]1[C@@H](CC#N)C1(C)C` stands -0.534; under `CCCCOc1ccc(C(=O)N/C(=C\c2ccc([N+](=O)[O-])cc2)C(=O)OCc2ccco2)cc1`, -0.576; under `COCCCNC(=O)C1CCC(=O)N1Cc1ccccc1Cl` (stereo not drawn), -0.0555.
Take `S=c1sc(SCCOc2ccccc2)nn1-c1ccccc1`: the z-score is -0.317.
The figure for `CCOC(=O)c1c(C)[nH]c(C)c1C(=O)CSc1nc(N)cc(=O)[nH]1` is -0.0689; for `CCC(=O)Nc1cc(SCCO)cc([N+](=O)[O-])c1` it is 0.0657.
With `CC(=O)OCC(=O)Nc1ccc(C(C)=O)cc1`, the z-score was -0.127.
In the case of `Cc1ccc(C(NC(=O)C2CCCCC2)c2c(O)ccc3ccccc23)cc1` (stereo not drawn), the z-score was -0.571.
`CCOC(=O)C1CCN(C(=O)c2ccccc2NC(=O)c2ccc(Cl)cc2)CC1` registered a z-score of 1.35.
In turn, `COc1ccc(F)cc1S(=O)(=O)Nc1ccc(C)cc1` returned a z-score of 0.102.
Under `CCOc1ncccc1C(=O)OCc1ccc(C(=O)OC)cc1` stands -0.497; under `CCOC(=O)c1c(C)[nH]c(C)c1C(=O)COC(=O)/C=C/c1cccc(C(F)(F)F)c1`, 0.171.
Under `O=C(NCc1nnc(SCC(=O)N2CCCC2)o1)c1ccccc1F` stands -0.183; under `CCCCn1c(SCc2cccc([N+](=O)[O-])c2)nc2ccsc2c1=O`, -0.383.
The figure for `Cc1sc2ncnc(NCC(C)(C)N3CCOCC3)c2c1C` is 0.226.
`COC(=O)c1cc(OC)c(OC)cc1NC(=S)N1CCCCC1` yielded a z-score of -0.386.
Under `Cc1cc(N2CCN(c3ccc(F)cc3)CC2)nc2cc(O)ccc12` stands -0.13.
`CCN1CCN(C(=O)c2ccc(NS(=O)(=O)c3ccccc3)cc2)CC1` yielded a z-score of 0.343.
The figure for `COc1ccc(C2CC3CC(c4ccccc4)N2O3)cc1` (stereo not drawn) is -0.085.
As for `C(=N\n1cnnc1)/c1cccnc1`, the z-score was determined as 0.513.
`CCN1CCn2c3c(c4cc(C)ccc42)CCCC31` (stereo not drawn): the z-score was determined as 0.485.
The compound `CCN1CCN(C(=O)C2(NC(=O)Nc3ccccc3Cl)CCCCC2)CC1` gave a z-score of 0.404.
Turning to `Cc1ccc(S(=O)(=O)NCCc2ccc(S(N)(=O)=O)cc2)cc1`, the z-score was found to be 0.0652.
Under `CCCN(CC1CC1)C(=O)COC(=O)c1ccc(CNS(=O)(=O)c2ccc(F)c(Cl)c2)cc1` stands -0.223; under `CC(=O)Nc1ccc(C2=NN(CC#N)C(=O)SC2)cc1`, -0.0818; under `Cc1cc(=O)[nH]c(SCC(=O)Nc2ccccc2C#N)c1C#N`, 0.21.
Compound `Nc1nnc(SCC(=O)c2ccc3ccccc3c2)s1` showed a z-score of -0.158.
The figure for `CC(C)(C)c1ccccc1OCCOCCNCc1ccccc1` is -0.673; for `CCCCOc1ccc(C2C(=O)N(C3CCCCC3)CC(=O)N2CC2CCCO2)cc1` (stereo not drawn) it is -0.206.
`CCOC(=O)c1cnn(-c2ccccc2)c1-n1cccc1C(=O)C(=O)Nc1ccc(OC)cc1`: the z-score is -0.189.
On to `CCOC(=O)c1c(C)[nH]c(C)c1C(=O)COC(=O)c1ccc(Cl)c(S(=O)(=O)NCc2ccccc2)c1`, for which the z-score is -0.142.
`CCOc1ccc(NC(=O)/C=C/c2ccccc2)c([N+](=O)[O-])c1` registered a z-score of -2.4.
Under `COc1cc(/C=C(\C#N)c2ccccn2)ccc1OCc1ccccc1Cl` stands -0.253.
Under `CCOc1ccc(CNC(=O)c2ccc(Sc3ccc(Cl)cc3)c(NC(C)=O)c2)cc1` stands -0.0412; under `Cc1ccc(S(=O)(=O)N(CC(=O)N/N=C/c2cccc3c2OCCO3)c2ccccc2F)cc1`, -0.291.
On to `Cc1ccc(C(=O)N/N=C/c2ccc([N+](=O)[O-])s2)cc1`, for which the z-score is -0.176.
With `Cc1cc(C)nc(NS(=O)(=O)c2ccc(NC(=O)c3cccs3)cc2)n1`, the z-score was -0.176.
Under `CCN(CC)CCNC(CC(=O)Nc1ccc(Cl)cc1Cl)C(=O)O` (stereo not drawn) stands 0.968; under `COc1cccc(/C=N/NC(=O)CSc2nnc(C)n2-c2ccccc2)c1OC`, -0.0834; under `Cc1cc(O)c(C(C)C)cc1NC1=NS(=O)(=O)c2ccccc21`, -0.941.
As to `CC(=O)OC(C(=O)NC1CCCCC1)c1ccc(C#N)cc1` (stereo not drawn), the z-score is -0.383.
Under `O=c1cc(-c2ccccc2)c2ccccc2[nH]1` stands 0.953; under `CC(=O)Oc1ccc(-c2cccc(C(=O)NCC(=O)O)c2)cc1`, -0.762.
In the case of `Cn1c(N)c(C(=O)COC(=O)CN2C(=O)c3ccccc3C2=O)c(=O)n(C)c1=O`, the z-score stood at 0.0178.
The figure for `COc1ccc(CNC(=O)C(c2ccc(C)o2)N(Cc2cccs2)C(=O)Cc2cccs2)cc1` (stereo not drawn) is -0.248; for `O=S(=O)(c1ccc2ccccc2c1)N1CCN(S(=O)(=O)N2CCOCC2)CC1` it is 0.17.

The record behind these values is PubChem BioAssay AID488969 (Vanderbilt High Throughput Screening Facility, 2010).
